Paper PMC4336329 (PLoS ONE, 2015)
Among all 310,000 compounds or so, about 14,000 (4.5%) showed an effect of 50% or more. The effect is printed as a negative number. This is one part of the list.

Each molecule was assayed against human ether-à-go-go-related gene (hERG) potassium channel (human, UniProt Q12809) (assay: primary screen, population patch clamp on CHO cells stably expressing hERG).
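Also: peak tail current of the secondary pulse compared with the same well before compound.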

human ether-à-go-go-related gene (hERG) potassium channel, sequence (Q12809 whole entry, looked up): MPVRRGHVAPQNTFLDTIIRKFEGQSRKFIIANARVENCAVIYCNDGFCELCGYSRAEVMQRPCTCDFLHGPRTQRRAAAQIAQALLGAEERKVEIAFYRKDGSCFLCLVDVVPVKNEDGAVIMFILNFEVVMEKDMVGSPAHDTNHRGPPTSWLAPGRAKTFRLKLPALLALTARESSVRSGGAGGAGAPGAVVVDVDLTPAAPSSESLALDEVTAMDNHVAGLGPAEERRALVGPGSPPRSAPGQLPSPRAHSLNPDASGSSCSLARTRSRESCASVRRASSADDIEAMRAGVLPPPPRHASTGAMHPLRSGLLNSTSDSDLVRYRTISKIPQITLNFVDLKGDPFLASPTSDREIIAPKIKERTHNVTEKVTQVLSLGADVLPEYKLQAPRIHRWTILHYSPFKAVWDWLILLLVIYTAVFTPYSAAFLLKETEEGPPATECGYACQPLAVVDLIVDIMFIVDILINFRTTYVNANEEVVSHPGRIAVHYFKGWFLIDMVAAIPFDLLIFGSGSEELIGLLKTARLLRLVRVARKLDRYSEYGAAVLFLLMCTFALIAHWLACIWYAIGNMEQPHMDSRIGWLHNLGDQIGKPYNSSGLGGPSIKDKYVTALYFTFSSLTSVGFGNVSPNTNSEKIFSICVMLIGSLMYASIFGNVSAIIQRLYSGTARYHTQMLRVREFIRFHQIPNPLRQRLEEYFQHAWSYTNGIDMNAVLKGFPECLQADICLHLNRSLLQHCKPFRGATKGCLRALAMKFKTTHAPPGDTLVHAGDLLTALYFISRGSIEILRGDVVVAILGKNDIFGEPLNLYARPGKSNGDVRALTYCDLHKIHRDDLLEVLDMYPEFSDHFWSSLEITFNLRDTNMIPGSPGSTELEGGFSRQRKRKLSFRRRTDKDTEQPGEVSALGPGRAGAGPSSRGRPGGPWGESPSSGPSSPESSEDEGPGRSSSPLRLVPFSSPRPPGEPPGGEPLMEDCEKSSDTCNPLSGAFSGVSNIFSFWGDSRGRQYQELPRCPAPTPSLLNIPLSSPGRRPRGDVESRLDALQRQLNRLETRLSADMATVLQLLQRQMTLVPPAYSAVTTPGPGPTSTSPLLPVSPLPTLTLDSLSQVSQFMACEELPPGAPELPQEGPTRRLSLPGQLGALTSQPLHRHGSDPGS

Compound	hERG current change (%, negative = inhibition) at 10uM [%]
O=C(CNC(=O)c1cccc(F)c1)OCc1cc(=O)n2cc(Br)ccc2n1	-9.66
Cc1cc(Cl)c2oc(C(=O)N(C)C3CCOC3)c(C)c2c1 (stereo not shown)	-2.84
COC(=O)c1ccc(C2/C(=C(\O)c3ccc4c(c3)OCCO4)C(=O)C(=O)N2CCCN2CCOCC2)cc1 (stereo not shown)	20.3
C[C@H](NC(=O)c1ccccc1Cl)C(=O)OC(C(=O)Nc1cc(C(F)(F)F)ccc1Cl)c1ccccc1 (stereo partly shown)	10.1
CCCSc1nsc(NC(=O)Nc2ccc(F)cc2F)n1	16
CN(CC(=O)Nc1c(Cl)cccc1Cl)C(=O)CNC(=O)c1ccco1	7.01
CCOc1ccc(NC(=O)c2ccc(-n3cccn3)nc2)cc1	18.7
COc1ccc(/C=C2\N=C(c3ccc(C)cc3)OC2=O)cc1	16.7
CC1(C(=O)NCCCNc2ncc(C(F)(F)F)cc2Cl)C=CCN1C(=O)c1ccccc1 (stereo not shown)	-56.4
Cc1nn(C2CCOC(C)(C)C2)c2c1C(c1ccc3c(c1)OCO3)SCC(=O)N2 (stereo not shown)	-6.19
CCOC(=O)C(C)Sc1nc2c(c(=O)[nH]c(=O)n2C)n1Cc1ccc(Cl)cc1 (stereo not shown)	-75
COc1ccc(NC(=O)CC(C)n2ccnc2)cc1 (stereo not shown)	18.4
O=C(Cc1cccs1)Nc1nnc(SCC(=O)NC2CCCCC2)s1	7.84
C#CCOCCOCCOCCNc1nc(N2CCN(C(=O)C([C@@H](C)CC)n3cc(C(N)CC(C)C)nn3)CC2)nc(N2CCN(C(=O)[C@H](CCC(=O)O)n3cc(C(N)CC(C)C)nn3)CC2)n1.Cl (stereo partly shown)	17.3
Nc1ccn(CC(=O)NCCCc2ccccc2)c(=O)n1	4.9
COC(=O)CC1C(=O)NCCN1C(=O)OC(C)(C)C (stereo not shown)	11.5
Cc1cc2c(nc1C)CCCN2C[C@@H](C)O/N=C1/[C@H]2CCn3c(=O)n(-c4ccccc4)c(=O)n3[C@H]2[C@H](O)[C@@H]2O[C@H]12	-32.9
O=C1C2CC=C(Cl)CC2C(=O)N1CC1OCCc2ccccc21 (stereo not shown)	-9.17
COc1ccccc1CN1CCCC(C(=O)c2ccccc2OC)C1 (stereo not shown)	-47.2
CC(C)C(=O)Nc1ccc2c(c1)C(=O)NC2=O	14.3
O=C(CSC(=S)N1CCCC1)NCC(=O)Nc1ccccc1Br	-0.166
CCOC(=O)c1c(-c2ccccc2)oc2cc(CN(C)C)c(O)c(CN(C)C)c12	-41.5

Compound	hERG current change (%, negative = inhibition) at 10uM [%]
CCCc1nnc(NC(=O)CCC(=O)N2CCC(C)CC2)s1	14.8
O=C(CN1CCN(S(=O)(=O)c2ccc(Br)cc2)CC1)Nc1ccc2c(c1)OCCO2	-27.9
O=C1CCC/C1=C/Nc1ccc(Cl)cc1	-4.33
Cc1cccc(-n2ncc(C(=O)NC3CCCC3)c2C2CCN(C(=O)OC(C)(C)C)CC2)c1	-4.47
COc1ccc(CCN2C(=O)C3C(C2=O)C2C=CC3C23CC3)cc1OC (stereo not shown)	-17.3
Cc1noc(C)c1COC(=O)CNC(=O)c1ccc(Cl)cc1	7.83
O=C(COc1ccc(Cl)cc1Cl)N/N=C/C1CC=CCC1 (stereo not shown)	11.5
CCn1c2ccccc2c2nnc(SCC(=O)Nc3c(C)n(C)n(-c4ccccc4)c3=O)nc21	0.0991
O=C1CSC(c2ccccn2)N1c1ccc(F)cc1F (stereo not shown)	-0.569
O=C(CN(Cc1ccccc1Cl)S(=O)(=O)c1ccc(Cl)cc1)N/N=C/c1ccc(C(=O)O)cc1	16.2
CC(NC(=O)COC(=O)c1ccc(OCC2CCCO2)cc1)c1ccccc1Cl (stereo not shown)	-2.21
CCCn1cnc2scc(-c3ccc(C)c(C)c3)c2c1=O	-3.28
C1CCC(OCCN2CCN(CCOC3CCCCC3)CC2)CC1	-37.1
Cc1nc2ncccn2c1-c1csc(NCc2ccco2)n1	-51.8
CCOc1cc(/C=C2/SC(=O)N(CC(=O)N3CCc4ccccc4C3)C2=O)ccc1OCC(=O)O	3.14
COc1ccc(S(=O)(=O)N2CCOC23CCN(S(=O)(=O)c2cc(F)ccc2F)CC3)cc1	-2.76
COc1ccc(Cc2nnc(SCC(=O)Nc3ccccc3C)n(N)c2=O)cc1	13.5
CCN1CCN(CCC(=O)Nc2cc(OC)ccc2OC)CC1.Cl	0.86
C=CCN1C(=O)N/C(=C/c2ccc(C)o2)C1=O	9.15
CCCCN(C)C(=O)c1cccc(OC2CCN(CC(C)(C)C)CC2)c1	-12.5
Cc1cc(N2CCC(C(=O)NC3CC3)CC2)nc(-c2ccccc2)n1	-46
Nc1cc(=O)[nH]n1C1CCCC1	21.5

Compound	hERG current change (%, negative = inhibition) at 10uM [%]
COc1ccccc1N1CC(O)=C(c2nc3ccccc3s2)C1=N	0.288
COc1cc(C(=S)N2CCOCC2)ccc1OS(=O)(=O)c1ccc(C)cc1	-7.34
CCC1C/C(=C/c2cccs2)C(=O)/C(=C/c2cccs2)C1 (stereo not shown)	-5.36
COC(=O)c1ccc(OCC(=O)c2ccccc2)cc1	-17.4
O=C(C1CCN(S(=O)(=O)c2cccs2)CC1)N1CCc2ccccc2C1	-38
COC(=O)C1C(c2ccc(N(C)C)cc2)C(C(=O)OC)S(=O)(=O)CS1(=O)=O (stereo not shown)	6.12
CC(=O)C(Sc1nccc(-c2cccs2)n1)C(C)=O	-18
CCCCN(CCCC)CCNC(=O)c1cn(C)c2ccc(S(=O)(=O)N3CCCC3)cc2c1=O	-57.9
CCOC(=O)c1c(NC(=O)CSc2ncnc3ccccc23)sc(C)c1C	0.193
COc1ccccc1CN1CCCCCC1.O=C(O)C(=O)O	11.5
CC(=O)c1ccc(N2CCN(C(=O)Cc3ccccc3)CC2)c(F)c1	-9.6
O=C(c1ccc(CNS(=O)(=O)c2ccccc2)cc1)N1CCN(c2ccccn2)CC1	-28.5
O=[N+]([O-])c1cc(C(F)(F)F)ccc1-n1nnc2ccccc21	7.86
CCN(CC)CCN1C(=O)C(=O)/C(=C(/O)c2ccncc2)C1c1ccccc1F (stereo not shown)	2.25
CCN(CC)C(=O)c1sc(NC(=O)Cc2ccc(OC)cc2)c(C#N)c1C	7.7
CC(=O)Nc1ccc(C(=O)CSc2nnc3scc(-c4ccccc4)n23)cc1	0.323
COc1ccc(Br)cc1CNC(=O)Nc1cccs1	-2.81
CC(=O)n1c2ccccc2c2nc3ccccc3nc21	4.16
O=C(Oc1cccnc1)c1cc2ccccc2oc1=O	5.57
CNC(=O)CCc1[nH]c2ccccc2c1Sc1ccccc1	4.85
O=C(Nc1cc(S(=O)(=O)N2CCCCC2)ccc1N1CCCCC1)c1ccncc1	-52.4
CC1(C)CC(=O)C2=C(C1)OC(/N=C/N1CCOCC1)=C(C#N)C2c1ccccc1 (stereo not shown)	-11

Compound	hERG current change (%, negative = inhibition) at 10uM [%]
CCOc1cc(S(=O)(=O)NCc2ccccc2)ccc1Br	2.47
COc1ccc(O)c(C(=O)c2cnn(-c3ccccc3)c2)c1	5.65
Cc1nn(-c2ccccc2)c(C)c1NC(=O)COC(=O)c1cc(Br)ccc1O	-0.668
CC(C)(C)NC(=O)CSc1nc(-c2ccc(F)cc2)cs1	18.5
O=C(NCCCN1CCCC1=O)C(=O)NCC1OCCCN1S(=O)(=O)c1cc(F)ccc1F (stereo not shown)	23.8
COc1cccc(NC(=O)c2ccc3c(c2)C(=O)N(CC2CCCO2)C3=O)c1 (stereo not shown)	4.64
COC(=O)C1=C(C)N(CCc2c[nH]c3ccccc23)C(=O)/C1=C\N(C)C	20.5
O=C(CN1CCN(S(=O)(=O)c2ccc(Br)cc2)CC1)N/N=C/c1cccnc1	-31.6
C=CCn1cc(C(=O)OC)c(=O)c2cc(S(=O)(=O)N3CCCCCC3)ccc21	-0.223
CCCCC(CC)COC(=O)C(C#N)=C(c1ccccc1)c1ccccc1 (stereo not shown)	24.3
O=C(C(=O)N1CCN(c2cccc(Cl)c2)CC1)c1cn(CC(=O)N2CCOCC2)c2ccccc12	6.64
C/C(=N\NC(=O)c1nnn(-c2nonc2N)c1CN1CCCCC1)c1ccccc1O.Cl	-12.9
O=C(NC1CCCCC1)C(c1ccc2ncccc2c1)N(Cc1ccc(F)cc1)C(=O)c1ccc2c(c1)OCCO2 (stereo not shown)	-14.6
Cc1cc(C)nc(NC(=O)c2ccc([N+](=O)[O-])o2)n1	-2.93
Cc1ccc(N2CC(C(=O)OCc3nnc(-c4ccccc4)o3)CC2=O)cc1 (stereo not shown)	-4.97
COc1cc(/C=C2\C(=O)ON=C2c2ccc(Cl)cc2)ccc1O	6.33
CCCn1c2ccccc2c2cnn(CC(=O)NC(C)CC)c(=O)c21 (stereo not shown)	7.84
O=C(COc1ccc(Br)cc1)N/N=C1/SCC(=O)N1Cc1ccccc1	-40.2
O=C(O)C(O)c1ccccc1.O=C(O)C(O)c1ccccc1 (stereo not shown)	11.6
